# Measurements taken from the supplement of paper PMC3334620.
# Whole data set: some 33,000 sequences, median “E-score (-0.5 to 0.5)” near -0.054, cut for the highest 2% near 0.35. This is one part of the list.
# Target: T1, Stb5 (UniProt P38699)
# T1 sequence: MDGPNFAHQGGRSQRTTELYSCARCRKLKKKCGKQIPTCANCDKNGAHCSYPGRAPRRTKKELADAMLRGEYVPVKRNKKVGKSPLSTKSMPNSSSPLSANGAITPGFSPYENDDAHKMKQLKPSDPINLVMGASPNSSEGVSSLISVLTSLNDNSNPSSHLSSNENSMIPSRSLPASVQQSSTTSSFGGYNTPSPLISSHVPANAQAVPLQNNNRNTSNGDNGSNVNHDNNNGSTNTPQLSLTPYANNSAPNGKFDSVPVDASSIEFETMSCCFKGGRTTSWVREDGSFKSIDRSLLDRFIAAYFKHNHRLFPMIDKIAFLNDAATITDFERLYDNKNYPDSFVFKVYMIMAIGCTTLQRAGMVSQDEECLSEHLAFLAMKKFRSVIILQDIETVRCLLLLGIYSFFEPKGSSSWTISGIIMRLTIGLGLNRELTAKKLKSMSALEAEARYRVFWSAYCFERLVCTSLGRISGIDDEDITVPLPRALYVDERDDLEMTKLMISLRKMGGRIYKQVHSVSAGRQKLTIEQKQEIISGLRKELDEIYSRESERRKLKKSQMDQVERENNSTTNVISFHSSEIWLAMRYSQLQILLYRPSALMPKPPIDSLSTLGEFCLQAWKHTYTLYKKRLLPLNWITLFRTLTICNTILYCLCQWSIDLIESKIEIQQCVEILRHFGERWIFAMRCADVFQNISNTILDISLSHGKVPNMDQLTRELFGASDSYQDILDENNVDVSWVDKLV
# Assay: PBM E-score (8-mer binding enrichment) (E-score (-0.5 to 0.5)); higher = stronger / more preferred TF binding; most listed sequences are background and not binding sites
# Conditions: protein concentration: 200 nM; construct: GST-full length
# Method in brief: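 Full-length yeast transcription factors or their DNA-binding domains, GST-tagged and expressed with PURExpress, were applied at about 100-200 nM to universal all-10-mer Agilent arrays. These arrays had been made double-stranded by primer extension on fresh or once-stripped slides. Detection used fluorescent anti-GST, normalisation used masliner, and E-scores for ungapped eight-base words pooled with reverse complements came from the Universal PBM Analysis Suite.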
row,Sequence,PBM E-score
1,CTCCATCA,0.0765
2,AATGGGCA,-0.356
3,GCCACAGA,0.0915
4,CAACTATC,-0.141
5,CGAAACCG,0.161
6,CTGTGCAC,-0.176
7,CAACAAGG,-0.219
8,AAAAATGA,-0.0682
9,AGTCAAGC,-0.3
10,ACGCGCCA,-0.191
11,ATTTTTAA,0.268
12,CAAAGGAC,-0.166
13,CGATGGTA,0.00643
14,GCAACACC,0.267
15,CCACCCAA,0.0149
16,GACGATGC,-0.0743
17,AATAACGG,0.294
18,TCGCGAGA,-0.0702
19,AGCTACGG,0.0512
20,GACGGACC,0.316
21,GCTATGGA,-0.0548
22,AGGGAACT,-0.079
23,ATGAATAA,-0.00507
24,CGCGCATC,0.0394
25,ACGCAGAT,0.0541

row,Sequence,PBM E-score
1,CTCCTTCC,-0.25
2,CAAGGGCG,-0.0091
3,ATCTGGGA,-0.219
4,CAAGATTC,-0.0416
5,ACGCTTGG,-0.319
6,CTGCTTGA,-0.286
7,AGATAGAC,-0.0476
8,GAATCAGA,-0.137
9,ATATATGC,0.205
10,AGCTAACT,-0.0801
11,ACAGTATC,-0.244
12,ATCACGTC,0.00329
13,AGACTGTA,-0.142
14,ACTGTCGG,0.33
15,AATGGTGG,-0.261
16,AATGAAAA,-0.0147
17,TCCTGAAA,-0.158
18,CCGTCCAC,0.16
19,AGGTTATC,-0.0681
20,CTACGATA,-0.261
21,GTGGCGCA,-0.139
22,GCTCTAAA,-0.194
23,ATAAAAGA,0.0611
24,CCTATTCC,0.0769
25,GCGTCGGA,0.345

row,Sequence,PBM E-score
1,AGATCGGG,0.279
2,AATGATTG,-0.226
3,AGGTTCGA,-0.0817
4,ACAAAGCC,0.0182
5,AGGATCCG,0.0973
6,ATGTCAAC,-0.0658
7,TAAACACA,-0.181
8,TCCAGCAA,-0.319
9,AGTCGGAA,0.221
10,GGGTGACA,0.0889
11,CGGTTTAG,0.091
12,AGCAGAAT,-0.144
13,ACTCTGGA,-0.206
14,CTGAATTC,-0.00247
15,CCTAGAAG,0.00997
16,ATGTTCCA,-0.287
17,AGGCTTCA,-0.0644
18,ACTGGAGG,-0.0702
19,AGATAGTG,-0.036
20,GCTACCAA,-0.0037
21,GCCGCGCC,0.221
22,AAAGCCTG,-0.0993
23,GCGTTGCA,-0.118
24,GCCTCGAA,0.00087
25,TAGGCCTA,-0.235

row,Sequence,PBM E-score
1,ATAGGGAC,-0.218
2,ATATCATC,-0.0238
3,CTAAACCA,0.0819
4,AATGTGAA,-0.198
5,ACGGATTA,0.0462
6,ACTGCGCT,-0.0575
7,TCGTACCA,-0.0376
8,CCAGTCTC,-0.224
9,GCCAAGCC,0.003
10,CCACCACG,0.0362
11,AACCTCAC,-0.215
12,CTGGGATA,0.0438
13,AATGATGA,-0.257
14,TCGTTTAA,-0.278
15,AGAATTTA,-0.0876
16,TCGCGACA,-0.054
17,AAGCATGA,-0.105
18,CTTACCGA,0.0867
19,CCAGGGGA,0.0175
20,GGCGATAC,0.314
21,TCGCAAAA,-0.121
22,TCGCTCAA,-0.192
23,ACCCTGAA,-0.115
24,AGCAACGA,-0.226
25,ATTCATGC,-0.128

row,Sequence,PBM E-score
1,GTTCGCTA,-0.0984
2,GGCAAGAA,0.134
3,GGGGCACA,-0.0591
4,GAGCAGGA,-0.113
5,GATACGCA,-0.284
6,GTTCTTTA,-0.0238
7,TAAGAACA,-0.0089
8,ACACAGTG,-0.184
9,GATCAACC,-0.121
10,ATTGAGGA,-0.153
11,AAGGGTGG,-0.162
12,ATATATAG,0.21
13,AGCCACCA,-0.16
14,ACGTATGC,-0.0892
15,TCTAATAA,-0.12
16,TAGACATA,-0.0673
17,AGACTCAT,-0.315
18,ACTCAGAG,-0.132
19,ATTCGGAA,-0.00284
20,ACGAACCT,-0.14
21,CGCACAAA,-0.0261
22,ATCCAGCG,0.152
23,AGGGTACT,-0.242
24,CTAGTATA,0.036
25,GCACCGTA,0.248

row,Sequence,PBM E-score
1,GCCTTACC,0.0537
2,AACTACAA,-0.0188
3,AGTTCCGG,0.333
4,AATGATGT,-0.212
5,TGAGTCCA,-0.178
6,GAAGCCTC,-0.166
7,GGTGCGGA,0.236
8,ATCGCGCC,0.224
9,GGAGTAAA,0.16
10,AACAGCTT,-0.244
11,GGTTAGGA,-0.00117
12,CGGAGCGA,0.265
13,AACCATAT,0.0532
14,CAAGTGGC,-0.185
15,TCTCAAAA,-0.0375
16,GCCAAGAA,0.0257
17,CGCGCTTC,0.016
18,CGGCTCCC,-0.0984
19,CACCTGAC,-0.141
20,ATAAGCTG,-0.18
21,ATTCGGGG,0.298
22,AGCGCCTA,-0.131
23,CAGCTTTA,-0.121
24,CGGGTGTC,0.00649
25,ACTAGCCA,-0.381

row,Sequence,PBM E-score
1,AAGACTCC,0.00562
2,AACGTCCC,-0.0635
3,TAAGCCCA,0.0396
4,GAAGTACA,0.0264
5,CACGCTAC,-0.219
6,AAAGGAGC,-0.0913
7,CCAGCTAC,-0.248
8,CGATCGCC,0.0927
9,GAACCTCA,-0.0815
10,ACTGGTGG,-0.239
11,GGGTCGGA,0.348
12,CTATTACA,-0.131
13,AAGGGTCC,0.158
14,GTGGACAA,0.00929
15,CGAGTGTC,-0.0644
16,CAGACAAC,0.0416
17,ATGTAACC,0.284
18,CCTACTGA,-0.223
19,ACACGGAG,0.289
20,CTCTTTCC,-0.142
21,ACTCGGTG,0.188
22,AAACTTGG,0.0222
